# Data as given in PubChem BioAssay AID1508642 (National Center for Advancing Translational Sciences (NCATS), 2021).
# Screen size: about 43,000 compounds; about 200 (0.47%) were called active. Inconclusive results (about 12%) are left out. Calls come from the whole dose curve; as a rule, active = well fitted cell-killing curve with a large enough effect; inconclusive = small, poorly fitted or top-dose-only effect, or effect the other way; inactive = flat fitted curve, though single readings scatter. Some of the results follow.
# Assay: Cell viability qHTS assay in S16 Pmp22-F2sN cells; note: nearly all actives have a fitted effect of over 65% in size
# Conditions: S16 Pmp22-F2sN Schwann cells viability, CellTiter-Glo, 24 h; series mostly up to 57.5 µM; activity change, negative = cytotoxicity: at the top concentration
# In short: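 Used to flag compounds lowering reporter output through toxicity, this quantitative HTS measures ATP-based CellTiter-Glo luminescence in S16 Pmp22-F2sN Schwann cells after 24 h compound exposure at 37C.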
# % is set by controls: 0 for no effect and ±100 for the full control effect.
row,SMILES,"activity change, negative = cytotoxicity"
1,COc1cccc(NS(=O)(=O)c2ccc3[nH]cc(C(=O)N4CCCC4)c(=O)c3c2)c1,inactive: 15.5%
2,COc1ccc(-c2ccc(=O)n(CC(=O)Nc3ccc(OC)c(OC)c3)n2)cc1,inactive: -7.82%
3,CCOc1ccc(-c2nc(SCC(=O)Nc3cc(F)ccc3F)n3[nH]c(=O)cc3n2)cc1,inactive: -1.66%
4,Cn1cc(S(=O)(=O)N2CCOCC2)cc1C(=O)Nc1cccc(C#N)c1,inactive: -2.54%
5,CC(C)Oc1ccc(CNC(=O)Cn2nc(N3CCN(c4ccccc4)CC3)ccc2=O)cc1,inactive: -21.8%
6,COc1ccc(C2c3c(n(C)c4ccccc34)C(=O)N2CC(=O)Nc2ccc(F)cc2)cc1 (configuration not stated),inactive: -0.705%
7,CC(C)c1ccc(CNc2n[nH]c(-c3ccco3)n2)cc1,inactive: 1.4%
8,COCCNC(=O)C1=CC(c2ccc3c(c2)OCO3)=NS(=O)(=O)N1C,inactive: -0.97%
9,CCC(=O)N1CCc2cc(OC)c(OC)cc2C1COc1ccc2c(C)cc(=O)oc2c1 (configuration not stated),inactive: 11.6%
10,Cc1ccc(C(=O)c2oc3ccccc3c2NC(=O)Cc2ccccc2)cc1,inactive: 10.5%
11,Cc1ccc(NC(=O)C2CCCN2S(=O)(=O)c2ccc3c(c2)n(C)c(=O)c(=O)n3C)cc1C (configuration not stated),inactive: 0.963%
12,O=C1N(Cc2ccccc2)c2ccccc2C1(O)c1c[nH]c2ccccc12 (configuration not stated),inactive: -3.71%
13,Cn1c(=O)c2c(SCC(=O)N3CCc4ccccc43)nc(-c3ccc(Cl)cc3)nc2n(C)c1=O,inactive: -2.56%
14,CCn1nnc2cc(C(=O)Nc3ccc(Br)cc3F)ccc21,inactive: 13.2%
15,Cn1ncc2c(NCc3ccc(F)cc3)ncnc21,inactive: -8.74%
16,CCOC(=O)c1c(S(=O)(=O)N2CCC(C(=O)N3CCN(c4ccc(F)cc4)CC3)CC2)c(C)n(C)c1C,inactive: 0.0457%
17,CCCOc1ccc(CNC(=O)CN2C(=O)c3cccnc3Oc3ccc(C)cc32)cc1,inactive: -2.53%
18,COC(=O)C1CCN(c2csc3ccc(Cl)cc3c2=O)CC1,inactive: -4.06%
19,O=C(NCCCO)c1nn(-c2ccc(Cl)cc2)nc1CO,inactive: 7.99%
20,O=C(CN1C(=O)COc2ccc(S(=O)(=O)N3CCOCC3)cc21)N1CCN(c2ccccc2F)CC1,inactive: 11.6%
21,CCc1cccc(NC(=O)c2c(C)oc3nc(C)nc(N4CCCC4)c23)c1,inactive: 1.21%
22,Cc1ccc(NC(=O)C(=O)NCC2(c3ccccc3)CCCC2)cc1C,inactive: -29.6%
23,CCc1ccc(NCc2cc3ccc(OC)cc3n(CC(=O)Nc3ccc(C)c(Cl)c3)c2=O)cc1,inactive: 14.8%
24,COc1ccc(C(=O)N(Cc2cc(OC)c(OC)c(OC)c2)C2CCS(=O)(=O)C2)cc1Cl (configuration not stated),inactive: 1.3%
25,CCc1ccc(OCc2cc(=O)n3cc(C)sc3n2)cc1,inactive: -1.16%

row,SMILES,"activity change, negative = cytotoxicity"
1,CCOc1ccc2oc(=O)cc(CN3CCN(c4ccccc4OC)CC3)c2c1,inactive: -11.4%
2,COc1cc(OC)c(OC)cc1CNCCCSc1nnnn1C,inactive: 5.26%
3,COc1cccc(NC(=O)Cn2c(=O)n(CCc3ccc(OC)c(OC)c3)c(=O)c3ccccc32)c1,inactive: 19.1%
4,Cn1c(C(=O)Nc2ccc(OC(F)(F)F)cc2)cc2c(=O)n3ccccc3nc21,inactive: 0.119%
5,COc1ccccc1CNC(=O)c1nnn(CC(=O)Nc2c(C)cccc2C)c1N,inactive: -3.09%
6,CC(=O)c1ccc(N2CCN(c3ncnc4c3cnn4-c3cc(Cl)ccc3C)CC2)cc1,inactive: 0.9%
7,Cc1ccc(CNC(=O)CN2N=C(c3ccccc3)CCC2=O)cc1,inactive: 10.1%
8,CCc1cccc(NC(=O)c2ccc3c(c2)c(C)c(C)n3Cc2ccc(F)cc2)c1,inactive: -7.54%
9,CCOc1ccccc1NC(=O)c1c(NC(=O)Cc2ccc(OC)cc2)sc2c1CCC2,inactive: 1.44%
10,Cc1ccc(OCC(=O)Nc2cccc(C(=O)OCc3cc(=O)n4c(C)csc4n3)c2)cc1,inactive: 0.0787%
11,Cc1ccc(NC(=O)COc2ccc3oc4c(c3c2)CCCC4)cc1C,inactive: 1.28%
12,Cc1ccc(CN2COc3c(Cl)cc4c(-c5ccccc5)cc(=O)oc4c3C2)cc1,inactive: -7%
13,Cc1cccc(CSc2nnc3[nH]c(=O)cc(-c4ccccc4)n23)c1,inactive: -10.9%
14,COc1cc(-c2nc3ccc(Cl)cn3c2Nc2ccc3c(c2)OCCO3)ccc1O,inactive: -15%
15,O=C(c1ccc2c(c1)N(Cc1ccc(Cl)cc1)C(=O)c1ccccc1S2(=O)=O)N1CCN(c2ccccn2)CC1,inactive: 0.568%
16,Cc1cc(NC(=O)C2CCCN(S(=O)(=O)c3cccc4nsnc34)C2)ccc1Br (configuration not stated),inactive: 0.301%
17,O=C(Nc1cc(Cl)cc(Cl)c1)c1ccc(F)c(S(=O)(=O)N2CCN(c3ccccc3F)CC2)c1,inactive: -17.1%
18,CCOc1ccc(NC(=O)N2CCC(N3CCCCC3)CC2)cc1,inactive: 15.9%
19,COc1ccc(-n2c(=O)c3ccc(C(=O)NCc4ccc(C)cc4)cc3n(Cc3ccc(Cl)cc3)c2=O)cc1,inactive: 9.77%
20,COCCn1c(C)cc(O)c(C(c2ccc(F)cc2)N2CCC(C)CC2)c1=O (configuration not stated),inactive: -2.89%
21,Cc1cccc(CSc2ncccc2C(=O)O)c1,inactive: 0.558%
22,CCOc1ccccc1NC(=O)Cn1c(=O)n(C(C)C)c(=O)c2oc3ccccc3c21,inactive: -1.35%
23,COc1cccc(NC(=O)Cn2c(=O)n(-c3ccccc3)c(=O)c3c2c2cc(OC)ccc2n3C)c1,inactive: 3.29%
24,Cc1ccc(N(CC(=O)Nc2ccc(C)c(Cl)c2)S(=O)(=O)c2cccs2)cc1,inactive: 1.54%
25,CC(=O)c1sc2c(c1C)c(=O)n(-c1ccc(Cl)cc1)c(=O)n2Cc1cc(=O)n2cc(Cl)ccc2n1,inactive: -13.1%

row,SMILES,"activity change, negative = cytotoxicity"
1,Cc1nn(C(=O)c2ccc(Cl)cc2)c(C)c1Sc1ccc(Cl)cc1,inactive: 0.469%
2,CCCCOc1ccc(OC(=O)c2sc3ncn(Cc4cccc(F)c4)c(=O)c3c2C)cc1,inactive: 1.74%
3,COc1cc2nc(SCc3ccc(Cl)cc3)n3nc(CCn4nc(C)cc4C)nc3c2cc1OC,inactive: -2.61%
4,CCCSc1nc2sc3c(c2c(=O)n1-c1ccccc1)CCC(C)C3 (configuration not stated),inactive: -2.21%
5,COc1ccc(OC)c(NC(=O)CCn2cnnn2)c1,inactive: -0.0052%
6,COc1ccc(CCNC(=O)c2cc(-c3ccc(C)cc3)nc3n[nH]c(-c4ccccc4)c23)cc1OC,inactive: -9.14%
7,COc1ccc(CNC(=O)c2cc3c(=O)[nH]c4ccc(C)cc4c3s2)c(OC)c1,inactive: 19.7%
8,COc1ccc(-c2oc3ncn4nc(-c5cccc(C)c5)nc4c3c2-c2ccc(OC)cc2)cc1,inactive: 3.48%
9,COc1cc(C(=O)Nc2nnc(S(=O)(=O)N(C)c3ccccc3)s2)cc(OC)c1OC,inactive: -1.18%
10,Cc1ccc(CN2C(=O)c3ccccc3Sc3ccc(C(=O)NC4CCCCC4)cc32)cc1,inactive: -0.15%
11,Cc1ccc(-c2nc3n(n2)C(c2ccccc2C)C=C(c2ccc(Cl)cc2)N3)cc1 (configuration not stated),inactive: -3.79%
12,COc1ccccc1CNC(=O)CS(=O)(=O)c1cccc2nsnc12,inactive: 1.47%
13,COc1ccc(CNC(=O)C2CCN(c3nc4ccccc4[nH]3)CC2)c(OC)c1,inactive: -1.92%
14,COc1cc(CN(C(=O)COc2ccc(Br)cc2)c2ccccn2)cc(OC)c1OC,inactive: -13.3%
15,Cc1ccn2c(Nc3ccc(F)cc3)c(-c3ccc(C)o3)nc2c1,inactive: -14.6%
16,O=C(CSc1ncc(CO)n1Cc1ccccc1)Nc1nc2ccccc2s1,inactive: -28.5%
17,O=C(NC1CC(=O)N(c2ccc(F)cc2)C1)c1cccs1 (configuration not stated),inactive: -5.57%
18,CCc1ccccc1NC(=O)C1(S(=O)(=O)c2ccc(Cl)cc2)CC1,inactive: 7.42%
19,COc1ccc(-c2nsc(NC(=O)COc3ccc(C)c(C)c3)n2)cc1,inactive: 3.35%
20,Cc1cc(C)cc(NC(=O)CN2C(=O)CSc3ccc(S(=O)(=O)N(C)C)cc32)c1,inactive: 23.8%
21,Cc1ccc(OCC(=O)Nc2ccc(Cl)c(-c3nc4ncccc4o3)c2)cc1C,inactive: 18.5%
22,CCOC(=O)c1c(C)oc2ncnc(Nc3ccc(F)cc3Cl)c12,inactive: 7.83%
23,CN(C)S(=O)(=O)c1ccc2c(c1)N(CC(=O)NCc1ccccc1)C(=O)C1CCCCN21 (configuration not stated),inactive: 7.11%
24,Cc1ccccc1CCNC(=O)c1ccc2c(c1)c(C)c(C)n2C,inactive: 9.33%
25,COc1ccccc1CNC(=O)CCn1c(=O)c2ccccc2n(CC(=O)Nc2ccc(C)cc2)c1=O,inactive: 6.74%

row,SMILES,"activity change, negative = cytotoxicity"
1,Cc1cccc(CNC(=O)C2CCCN(S(=O)(=O)c3cn(C)cn3)C2)c1 (configuration not stated),inactive: -5.01%
2,Cn1nnnc1SCCCNCc1ccc(-c2ccc(Br)cc2)o1,inactive: -28%
3,CCCCCn1c(=O)[nH]c2cc(C(=O)Nc3cc(OC)cc(OC)c3)ccc2c1=O,inactive: 3.43%
4,Cc1ccc2oc(=O)c3cc(C(=O)N4CCN(c5ccccc5)CC4)sc3c2c1,inactive: -1.66%
5,Cc1nn(S(=O)(=O)c2ccc(C(C)C)cc2)c(C)c1S(=O)(=O)N1CCCCCC1,inactive: -12.5%
6,Cc1ccc(NC(=O)CSc2nc3ccccc3nc2Cc2ccccc2F)cc1F,inactive: 14.2%
7,CCCCCNC(=O)c1c[nH]c2ccc(S(=O)(=O)N3CCC(C)CC3)cc2c1=O,inactive: -2.83%
8,CCC1CN(C(=O)NCc2ccc(C)cc2)c2cc(C)ccc2O1 (configuration not stated),inactive: -0.467%
9,COc1ccccc1CNc1nc2nc(C)c(Cl)c(C)n2n1,inactive: 0.0613%
10,COC(=O)c1c(NC(=O)c2cccc(OC)c2)sc2c1CCC(C(C)(C)C)C2 (configuration not stated),inactive: 4.18%
11,Cc1nc2c(c(C)c1CCC(=O)Nc1cccc(C(F)(F)F)c1)c(=O)n(C)c(=O)n2C,inactive: 7.18%
12,Cc1nnc(NC(=O)CSc2nccn2-c2cccc(Cl)c2)s1,inactive: 1.45%
13,CC1CCCN(S(=O)(=O)c2cc3c(cc2Cl)NC(=O)CO3)C1 (configuration not stated),inactive: 1.76%
14,COc1ccc(C(=O)Nc2ccccc2C(=O)OCc2cc(=O)n3c4c(sc3n2)CCCC4)cc1,inactive: -28%
15,O=C(CCC(=O)N1CC2CCCN2c2ccccc21)NCc1ccccc1Cl (configuration not stated),inactive: -14.5%
16,COc1ccc(-c2cc(=O)n3[nH]cnc3n2)cc1,inactive: 0.691%
17,COc1ccc(N2CCN(c3ccc(-c4nc(-c5ccccc5C)no4)cc3[N+](=O)[O-])CC2)cc1,inactive: 13.1%
18,Cc1cccc(-c2nc(SCC(=O)Nc3cc(C)on3)c3c(=O)n(C)c(=O)n(C)c3n2)c1,inactive: -3.39%
19,COCCCNC(=O)c1ccc2c(c1)N=C(C)c1c(C)ccc(C)c1S2,inactive: 11.3%
20,Cc1ccc(NC(=O)C(Cc2ccccc2)NS(=O)(=O)c2ccc3c(c2)oc(=O)n3C)c(Cl)c1 (configuration not stated),inactive: -15.1%
21,COc1ccccc1NC(=O)c1cc(S(=O)(=O)N(C)C2CCCCC2)ccc1F,inactive: -0.386%
22,CC1=C(C(=O)Nc2ccccc2C)C(c2cccnc2)n2nc(SCc3ccccc3)nc2N1 (configuration not stated),inactive: 0.845%
